In US20230129812A1 (ACCELERON PHARMA, published 2023):

T1: activin A (UniProt P08476 311-426)
T1 construct: also called ActA
T1 sequence (looked up): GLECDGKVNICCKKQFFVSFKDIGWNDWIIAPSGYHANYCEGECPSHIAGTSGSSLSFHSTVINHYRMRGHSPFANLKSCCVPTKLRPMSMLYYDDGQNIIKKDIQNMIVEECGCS

T2: GDF11 (UniProt O95390 299-407)
T2 construct: also called BMP11
T2 sequence (looked up): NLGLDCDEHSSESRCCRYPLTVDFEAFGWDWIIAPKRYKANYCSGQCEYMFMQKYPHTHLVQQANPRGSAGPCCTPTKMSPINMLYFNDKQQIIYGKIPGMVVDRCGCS

T3: activin AC (UniProt P08476 311-426; P55103 237-352)
T3 sequence (looked up) 1: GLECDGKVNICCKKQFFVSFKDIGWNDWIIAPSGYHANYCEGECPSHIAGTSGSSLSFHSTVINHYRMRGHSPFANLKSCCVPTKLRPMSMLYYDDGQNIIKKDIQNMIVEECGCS
T3 sequence (looked up) 2: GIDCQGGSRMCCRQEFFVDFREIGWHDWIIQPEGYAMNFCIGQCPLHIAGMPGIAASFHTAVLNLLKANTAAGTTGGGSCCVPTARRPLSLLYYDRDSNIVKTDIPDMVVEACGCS

T4: BMP7 (UniProt P18075 293-431)
T4 sequence (looked up): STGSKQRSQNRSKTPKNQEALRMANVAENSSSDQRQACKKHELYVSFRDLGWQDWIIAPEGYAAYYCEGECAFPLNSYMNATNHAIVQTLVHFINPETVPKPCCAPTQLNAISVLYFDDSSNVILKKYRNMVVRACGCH

T5: BMP6 (UniProt P22004 375-513, limits assumed)
T5 sequence (looked up): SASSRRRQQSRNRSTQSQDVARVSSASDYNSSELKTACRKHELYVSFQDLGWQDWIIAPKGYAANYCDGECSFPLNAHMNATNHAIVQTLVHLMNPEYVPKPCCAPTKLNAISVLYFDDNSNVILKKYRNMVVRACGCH

T6: GDF8 (UniProt O14793 267-375)
T6 construct: also called myostatin
T6 sequence (looked up): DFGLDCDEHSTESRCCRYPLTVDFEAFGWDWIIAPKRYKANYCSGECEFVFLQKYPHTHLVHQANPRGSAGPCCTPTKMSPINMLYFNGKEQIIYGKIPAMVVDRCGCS

T7: activin AB (UniProt P08476 311-426; P09529 293-407)
T7 sequence (looked up) 1: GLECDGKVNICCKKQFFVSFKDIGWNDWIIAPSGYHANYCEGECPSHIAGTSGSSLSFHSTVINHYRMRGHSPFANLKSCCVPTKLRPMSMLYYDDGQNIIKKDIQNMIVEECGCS
T7 sequence (looked up) 2: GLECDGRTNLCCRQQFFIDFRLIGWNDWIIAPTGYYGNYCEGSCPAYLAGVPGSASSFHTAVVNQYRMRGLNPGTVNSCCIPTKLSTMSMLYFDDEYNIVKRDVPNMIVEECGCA

T8: GDF3 (UniProt Q9NR23 251-364)
T8 construct: also called VGR2
T8 sequence (looked up): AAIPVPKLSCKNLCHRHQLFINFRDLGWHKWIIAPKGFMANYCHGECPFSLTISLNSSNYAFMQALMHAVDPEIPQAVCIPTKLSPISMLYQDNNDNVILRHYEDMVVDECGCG

T9: BMP10 (UniProt O95393 317-424)
T9 sequence (looked up): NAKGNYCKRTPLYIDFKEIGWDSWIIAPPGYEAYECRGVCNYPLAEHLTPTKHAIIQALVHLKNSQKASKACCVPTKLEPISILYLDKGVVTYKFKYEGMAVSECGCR

T10: activin B (UniProt P09529 293-407)
T10 sequence (looked up): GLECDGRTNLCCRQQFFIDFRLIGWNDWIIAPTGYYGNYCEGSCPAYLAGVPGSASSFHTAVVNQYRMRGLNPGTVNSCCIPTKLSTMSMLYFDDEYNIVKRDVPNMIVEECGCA

T11: BMP9 (UniProt Q9UK05 320-429)
T11 construct: also called GDF2
T11 sequence (looked up): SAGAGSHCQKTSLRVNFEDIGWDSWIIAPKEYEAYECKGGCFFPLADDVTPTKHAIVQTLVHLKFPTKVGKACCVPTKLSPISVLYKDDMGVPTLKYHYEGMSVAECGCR

B1: ActRIIA-hFc (Fc fusion)
chain: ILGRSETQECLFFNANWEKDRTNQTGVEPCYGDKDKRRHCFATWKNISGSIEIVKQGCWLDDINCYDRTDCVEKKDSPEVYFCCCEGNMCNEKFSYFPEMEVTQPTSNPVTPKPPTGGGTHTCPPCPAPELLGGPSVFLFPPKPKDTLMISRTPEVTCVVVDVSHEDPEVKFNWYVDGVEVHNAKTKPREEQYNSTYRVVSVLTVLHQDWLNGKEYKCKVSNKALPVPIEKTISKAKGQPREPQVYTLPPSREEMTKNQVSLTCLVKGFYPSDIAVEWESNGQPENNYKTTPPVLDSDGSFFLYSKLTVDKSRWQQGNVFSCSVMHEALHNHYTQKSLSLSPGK
notes: also called ActRIIA-hFc fusion protein
B2: ActRIIA-Fc homodimer (Fc fusion)
chain: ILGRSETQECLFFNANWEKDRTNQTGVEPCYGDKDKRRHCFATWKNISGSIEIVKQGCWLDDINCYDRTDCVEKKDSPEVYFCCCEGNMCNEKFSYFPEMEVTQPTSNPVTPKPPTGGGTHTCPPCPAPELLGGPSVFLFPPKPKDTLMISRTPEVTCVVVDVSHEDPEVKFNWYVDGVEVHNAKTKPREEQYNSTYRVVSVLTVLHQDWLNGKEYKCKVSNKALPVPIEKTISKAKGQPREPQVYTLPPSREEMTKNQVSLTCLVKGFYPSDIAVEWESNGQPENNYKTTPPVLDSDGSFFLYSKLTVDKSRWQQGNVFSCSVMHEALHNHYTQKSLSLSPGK
B3: ActRIIA-Fc:ALK4-Fc heterodimer (Fc fusion)
chain 1: [omitted - about 120 residues][omitted - about 250 residues]
chain 2: SGPRGVQALLCACTSCLQANYTCETDGACMVSIFNLDGMEHHVRTCIPKVELVPAGKPFYCLSSEDLRNTHCCYTDYCNRIDLRVPSGHLKEPEHPSMWGPVETGGGTHTCPPCPAPELLGGPSVFLFPPKPKDTLMISRTPEVTCVVVDVSHEDPEVKFNWYVDGVEVHNAKTKPREEQYNSTYRVVSVLTVLHQDWLNGKEYKCKVSNKALPAPIEKTISKAKGQPREPQVYTLPPSREEMTKNQVSLTCLVKGFYPSDIAVEWESNGQPENNYDTTPPVLDSDGSFFLYSDLTVDKSRWQQGNVFSCSVMHEALHNHYTQKSLSLSPG
notes: also called ActRIIA-Fc:ALK4-Fc heterodimeric complex

Assays:
[1] = molecular target: T1, activin A; assay: Biacore; activin A immobilised on a CM5 chip by amine coupling, ActRIIA-hFc injected over it; top panel 'ActRIIa Binding to Activin', six sensorgrams, the highest reaching about 140 RU at about 180 s with almost no decay up to 400 s
Description: (§1) GDF11 or activin A were immobilized on a Biacore™ CM5 chip using standard amine-coupling procedure. ActRIIA-hFc and ActRIIA-mFc proteins were loaded onto the system, and binding was measured. […] Using a similar binding assay, ActRIIA-hFc was determined to have high to moderate affinity for other TGF-beta superfamily ligands including, for example, activin B, GDF8, BMP6, and BMP10. ActRIIA-mFc behaved similarly.

[2] = molecular target: T2, GDF11; assay: Biacore; GDF11 immobilised on a CM5 chip by amine coupling, ActRIIA-hFc injected over it; bottom panel 'ActRIIa Binding to GDF11', five sensorgrams, the highest reaching about 35 RU at about 180 s and falling visibly up to 400 s
Description: as §1

[3] = molecular target: T3, activin AC; assay: SPR (Biacore); receptor-Fc captured by anti-Fc antibody, ligand injected
Description: (§2) A Biacore™-based binding assay was used to compare ligand binding selectivity of the ActRIIA-Fc:ALK4-Fc heterodimeric complex described above with that of ActRIIA-Fc and ALK4-Fc homodimeric complexes. The ActRIIA-Fc:ALK4-Fc heterodimer, ActRIIA-Fc homodimer, and ALK4-Fc homodimer were independently captured onto the system using an anti-Fc antibody. Ligands were injected and allowed to flow over the captured receptor protein. Results are summarized in Table 14 below, in which ligand off-rates (kd) most indicative of effective ligand traps are denoted in bold.

[4] = molecular target: T4, BMP7; assay: as above
Description: as §2

[5] = molecular target: T5, BMP6; assay: as above
Description: as §2

[6] = molecular target: T6, GDF8; assay: as above
Description: as §2

[7] = molecular target: T2, GDF11; assay: as above
Description: as §2

[8] = molecular target: T7, activin AB; assay: as above
Description: as §2

[9] = molecular target: T8, GDF3; assay: as above
Description: as §2

[10] = molecular target: T9, BMP10; assay: as above
Description: as §2

[11] = molecular target: T1, activin A; assay: as above
Description: as §2

[12] = molecular target: T10, activin B; assay: as above
Description: as §2

[13] = molecular target: T2, GDF11; assay: SPR (Biacore); receptor-Fc captured by anti-Fc antibody, ligand injected; receptor-Fc captured by anti-Fc antibody, GDF11 injected (not GDF11 amine-coupled to the chip as in paragraph 434)
Description: as §2

[14] = molecular target: T11, BMP9; assay: SPR (Biacore); receptor-Fc captured by anti-Fc antibody, ligand injected
Description: as §2

| Binder | Kd [3] [nM] | koff [3] [s⁻¹] | kon [3] [M⁻¹ s⁻¹] | Kd [4] [nM] | koff [4] [s⁻¹] | kon [4] [M⁻¹ s⁻¹] | Kd [5] [nM] | koff [5] [s⁻¹] | kon [5] [M⁻¹ s⁻¹] | koff [6] [s⁻¹] | kon [6] [M⁻¹ s⁻¹] | koff [7] [s⁻¹] | kon [7] [M⁻¹ s⁻¹] | Kd [8] [nM] | koff [8] [s⁻¹] | kon [8] [M⁻¹ s⁻¹] | Kd [9] [nM] | koff [9] [s⁻¹] | kon [9] [M⁻¹ s⁻¹] | Kd [10] [nM] | further results |
| --- | --- | --- | --- | --- | --- | --- | --- | --- | --- | --- | --- | --- | --- | --- | --- | --- | --- | --- | --- | --- | --- |
| B1 |  |  |  |  |  |  |  |  |  |  |  |  |  |  |  |  |  |  |  |  | Kd [1]: 0.005 nM; Kd [2]: 9.96 nM |
| B2 | 0.36 | 0.0079 | 2.2e+07 | 3.7 | 0.033 | 8.9e+06 | 0.8 | 0.022 | 2.7e+07 | 0.0014 | 1.4e+07 | 0.00092 | 7.3e+07 | 0.009 | 0.00026 | 2.8e+07 | 2.4 | 0.0036 | 1.5e+06 | 0.085 | koff [10]: 0.0025 s⁻¹; kon [10]: 2.9e+07 M⁻¹ s⁻¹; Kd [11]: 0.045 nM; koff [11]: 0.00062 s⁻¹; kon [11]: 1.4e+07 M⁻¹ s⁻¹; Kd [12]: 0.01 nM; koff [12]: 0.00011 s⁻¹; kon [12]: 1.1e+07 M⁻¹ s⁻¹; Kd [13]: 0.013 nM |
| B3 | 0.17 | 0.00054 | 3.2e+06 | 3.5 | 0.072 | 2e+07 | 2.2 | 0.012 | 5.4e+06 | 0.0028 | 1.8e+07 | 0.00065 | 3e+07 | 0.013 | 0.00023 | 1.8e+07 | 9.8 | 0.0048 | 490000 | > 6 | binding result [14]: no binding; Kd [6]: 0.15 nM; Kd [7]: 0.022 nM; Kd [11]: 0.032 nM; koff [11]: 0.00024 s⁻¹; kon [11]: 7.4e+06 M⁻¹ s⁻¹; Kd [12]: 0.05 nM; koff [12]: 0.00048 s⁻¹; kon [12]: 9.5e+06 M⁻¹ s⁻¹ |
